Data reported in PubChem BioAssay AID1030 (National Center for Advancing Translational Sciences (NCATS), 2008).
Values joined by “and” are separate entries in the source; they are usually repeats but may differ in a detail not shown here. Equal values may be shown once. Among all 220,000 compounds or so, about 16,000 (7.3%) were called active. Inconclusive means that the source gave no clear call. Such entries were picked first, then a sample of the others. The call rests on the fitted dose curve; in most records, active means well fitted inhibition curve with a large enough effect (not every such curve was filed as active); inconclusive means small, poorly fitted or top-dose-only effect, or another doubt; inactive means no such curve, though single readings can be large or run the other way. Potencies beside an inconclusive call are fits to weak or partial responses and may not hold up. The source holds several records for some structures; these can differ, active in one and inactive in another.

Target: Aldehyde dehydrogenase 1A1 (Homo sapiens) (UniProt P00352)
Experiment: qHTS Assay for Inhibitors of Aldehyde Dehydrogenase 1 (ALDH1A1);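 on activity, negative = inhibition: plate controls were no enzyme wells and a reference inhibitor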
Settings: Purified ALDH1A1, NADH fluorescence, propionaldehyde substrate; series mostly up to 75.3 µM
Potency means the concentration at half of the fitted maximal effect; tags describe the fitted curve by direction and shape.

Chain of UniProt P00352 (P00352 whole entry, looked up): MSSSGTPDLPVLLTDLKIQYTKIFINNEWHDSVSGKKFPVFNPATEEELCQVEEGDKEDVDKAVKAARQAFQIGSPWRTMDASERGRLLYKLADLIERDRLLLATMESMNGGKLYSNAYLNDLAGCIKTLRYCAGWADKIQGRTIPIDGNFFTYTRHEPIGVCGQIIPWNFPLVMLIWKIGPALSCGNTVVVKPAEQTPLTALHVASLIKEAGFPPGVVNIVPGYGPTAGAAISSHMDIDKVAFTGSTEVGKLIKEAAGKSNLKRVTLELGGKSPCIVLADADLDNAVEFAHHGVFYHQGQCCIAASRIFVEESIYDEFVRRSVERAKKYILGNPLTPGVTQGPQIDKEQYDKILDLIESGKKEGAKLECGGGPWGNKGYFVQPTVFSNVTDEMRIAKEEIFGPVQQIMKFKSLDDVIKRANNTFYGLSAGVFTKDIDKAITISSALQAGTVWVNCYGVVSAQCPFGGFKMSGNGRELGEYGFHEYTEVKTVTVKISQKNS

How did the Potency turn out when `CCOC(=O)c1c(C)n(Cc2ccccc2)c2ccc(OCC(O)Cn3nc(C)cc3C)cc12` (stereo unspecified) was run?
The Potency was inconclusive: 39.8 µM [inhibitor, single point].

How did the Potency turn out when `O=C(N/N=C/c1c(O)n(Cc2ccccc2)c(=O)[nH]c1=O)c1ccccc1O` was run?
Its Potency is inconclusive: 3.98 µM [inhibitor, partial curve].

For `O=C(CN1CCCCC1c1cccnc1)c1ccccc1` (stereo unspecified), which Potency is on record?
Its Potency is inconclusive: 14.1 µM [inhibitor, partial curve].

For `CC(C)CCn1c(N)c(C(=O)NCc2cccs2)c2nc3ccccc3nc21`, which Potency is on record?
Its Potency is inconclusive: 8.91 µM [inhibitor, partial curve].

`C=CCN1C(=O)/C(=C/c2cc(C)n(-c3cccnc3)c2C)C(=O)NC1=S` was tested. Which Potency did it give?
Its Potency is inconclusive: 14.1 µM [inhibitor, partial curve, poor fit].

With `Cc1c(C(=O)O)cccc1-n1c(C)cc(/C=C2\C(=O)NC(=O)N(c3ccc4c(c3)OCO4)C2=O)c1C` as the compound, how does the Potency read?
Its Potency is inconclusive: 28.2 µM [inhibitor, partial curve].

With `CNC(=O)Oc1cccc(-c2cn3cc(Cl)ccc3n2)c1` as the compound, how does the Potency read?
Its Potency is inconclusive: 39.8 µM [inhibitor, single point].

How did the Potency turn out when `COc1cccc(CCNCc2c(F)cccc2F)c1` was run?
Its Potency is active: 10 µM.

How did the Potency turn out when `O=C/C=C/c1ccccc1` was run?
The Potency was active: 2.51 µM and active: 12.6 µM.

With `Cc1ccc(C(=O)C2CN3CCC2CC3)cc1` (stereo unspecified) as the compound, how does the Potency read?
The Potency was active: 28.2 µM.

Which Potency does the source give for `CCN(CC)Cc1c[nH]c2ccccc12` here?
Its Potency is inconclusive: 39.8 µM [inhibitor, single point].

Which Potency does the source give for `COc1cccc(C(=O)N2CCN(Cc3ccccn3)CC2)c1OC` here?
The Potency was active: 7.08 µM.

`O=C1NC(=O)N(c2ccc(Cl)cc2)C(=O)/C1=C\c1ccc(Sc2nc3ccccc3[nH]2)o1` was tested. Which Potency did it give?
Its Potency is inconclusive: 25.1 µM [inhibitor, single point].

With `CN1CCN(C(=O)O[C@@H]2c3nccnc3C(=O)N2c2ccc(Cl)cn2)CC1` as the compound, how does the Potency read?
Its Potency is “inactive”.

With `CC(=O)Nc1ccccc1C(=O)OCC(=O)c1ccc2c(c1)OCCO2` as the compound, how does the Potency read?
The Potency was “inactive”.

For `Cn1cccc1/C=C1\C(=O)NC(=O)N(Cc2ccccc2Cl)C1=O`, which Potency is on record?
Its Potency is “inactive”.

How did the Potency turn out when `CCOc1ccccc1N1CCN(Cc2cccc(OC)c2OC)CC1` was run?
Its Potency is inconclusive: 0.0224 µM [inhibitor, full curve, poor fit].

How did the Potency turn out when `O=[N+]([O-])c1ccc(N2CCCCC2)c2ncccc12` was run?
Its Potency is inconclusive: 35.5 µM [inhibitor, partial curve, poor fit].

How did the Potency turn out when `O=C(c1ccco1)N1CCC[C@@]2(CCN(Cc3ccncc3)C2)C1` was run?
Its Potency is active: 10 µM.

Which Potency does the source give for `O=C1NC(=O)C(=Cc2ccc(-c3cc(Cl)ccc3[N+](=O)[O-])o2)C(=O)N1` here?
Its Potency is active: 22.4 µM.

`CC[C@@]1(O)C(=O)OCc2c1cc1n(c2=O)Cc2cc3ccccc3nc2-1` was tested. Which Potency did it give?
Its Potency is inconclusive: 17.8 µM [inhibitor, partial curve] [middle of 4 runs].

Which Potency does the source give for `Cc1ccc(/C=C/C2=NN(Cc3ccc(Cl)c(Cl)c3)C(=O)CC2)cc1` here?
The Potency was inconclusive: 39.8 µM [inhibitor, single point].

With `COC(=O)C12C/C=C\Cc3ccccc3[C@@H]1CNC2=O` (stereo partly specified) as the compound, how does the Potency read?
Its Potency is “inactive”.

`CCCCCOc1c(OC)ccc2cc(C(=O)NCc3ccc4c(c3)OCO4)c(=O)[nH]c12` was tested. Which Potency did it give?
The Potency was inconclusive: 23.8 µM [inhibitor, partial curve].

`Cc1cc(NC(=O)CCl)nn1C` was tested. Which Potency did it give?
Its Potency is inconclusive: 39.8 µM [inhibitor, single point].

Which Potency does the source give for `CC(C)C[C@H]1C(=O)N2CCC[C@@H]2[C@@]2(O)O[C@](NC(=O)[C@@H]3C=C4c5cccc6[nH]cc(c56)C[C@@H]4N(C)C3)(C(C)C)C(=O)N12` here?
Its Potency is inconclusive: 11.2 µM [inhibitor, partial curve].

Which Potency does the source give for `Cn1cc(CCC(=O)N2CCC3(CC2)OCCO3)c2ccccc21` here?
Its Potency is inconclusive: 39.8 µM [inhibitor, single point].

Which Potency does the source give for `CC(=O)[C@H]1CC[C@H]2[C@@H]3CCC4=CC(=O)CC[C@]4(C)[C@H]3CC[C@]12C` here?
The Potency was “inactive and active: 11.2 µM”.

How did the Potency turn out when `Cc1cccc(-n2c(O)c(C=Nc3ccc(S(N)(=O)=O)cc3)c(=O)[nH]c2=O)c1` was run?
The Potency was “inactive”.

How did the Potency turn out when `CC(=O)N1CCN(c2ccc(OC[C@H]3CO[C@](Cn4ccnc4)(c4ccc(Cl)cc4Cl)O3)cc2)CC1` was run?
The Potency was inconclusive: 39.8 µM [inhibitor, single point].

For `Cn1c(O)c(/C=N/Nc2ccccc2)c(=O)n(C)c1=O`, which Potency is on record?
The Potency was active: 10 µM.

With `CCOC(=O)C1=C(NC(=S)NC(=O)c2ccccc2)c2ccccc2CC12CCCC2` as the compound, how does the Potency read?
The Potency was active: 22.4 µM.

`COc1cccc(N2CCN(Cc3ccc(Cl)cc3)CC2)c1` was tested. Which Potency did it give?
Its Potency is active: 10 µM.

`OC1/C(=C/c2ccc(F)cc2)N2CCC1CC2` (stereo unspecified) was tested. Which Potency did it give?
The Potency was “inactive”.

How did the Potency turn out when `C/C(=N\Nc1ccccc1)c1c(O)n(C)c(=O)n(C)c1=O` was run?
Its Potency is active: 25.1 µM.

For `COc1ccc(Cn2c(O)c(/C=N/NC(=O)c3ccccc3)c(=O)[nH]c2=O)cc1`, which Potency is on record?
Its Potency is inconclusive: 39.8 µM [inhibitor, single point].

With `CC(CO)NC(=O)C1C=C2c3cccc4[nH]cc(c34)C[C@H]2N(C)C1` (stereo partly specified) as the compound, how does the Potency read?
Its Potency is inconclusive: 31.6 µM [inhibitor, partial curve].

`Oc1ccc([C@H](O)C2CCCCN2)cc1O` (stereo partly specified) was tested. Which activity, negative = inhibition did it give?
Its activity, negative = inhibition is inactive: 4.96% [at 13.5 µM].

`CC(=NCc1cccnc1)c1c(O)n(Cc2ccccc2)c(=O)[nH]c1=O` was tested. Which Potency did it give?
Its Potency is inconclusive: 31.6 µM [inhibitor, single point].

With `CCOC(=O)c1c(-n2c(C)cc(C=C3C(=O)NC(=S)NC3=O)c2C)sc2c1CCCC2` as the compound, how does the Potency read?
The Potency was active: 7.94 µM.

Which Potency does the source give for `O=c1c2ccccc2nc(-c2ccco2)n1-c1ccccn1` here?
Its Potency is “inactive”.

For `Cc1cccc(-n2c(O)c(C=Nc3ccccc3N)c(=O)[nH]c2=O)c1`, which Potency is on record?
Its Potency is inconclusive: 39.8 µM [inhibitor, single point].

Which Potency does the source give for `CCN1C[C@@]2(COC)CC[C@H](OC)[C@]34[C@@H]1[C@]1(OCO[C@@]15C[C@@H](OC)C1C[C@H]3[C@H]5[C@@H]1OC)[C@H](O)[C@@H]24` here?
Its Potency is “inactive”.

For `Cc1ccc(N2C(=O)/C(=C/c3ccc(CN(CCC#N)S(C)(=O)=O)o3)C(=O)NC2=S)cc1C`, which Potency is on record?
Its Potency is active: 20 µM.

Which Potency does the source give for `CC(C)[C@@]1(NC(=O)[C@@H]2C[C@H]3c4cccc5[nH]cc(c45)C[C@@H]3N(C)C2)O[C@@]2(O)[C@H]3CCCN3C(=O)[C@H](Cc3ccccc3)N2C1=O` here?
Its Potency is “inactive”.

For `Nc1ccccc1C(=O)OC1CSC1`, which Potency is on record?
The Potency was inconclusive: 39.8 µM [inhibitor, single point].

`CCOC(=O)C1CCN(/C=C2/C(=O)NC(=S)N(c3cccc(OC)c3)C2=O)CC1` was tested. Which Potency did it give?
Its Potency is “inactive”.

`C=CCN(c1ccc(C(=O)N(CC)CC)cc1)S(C)(=O)=O` was tested. Which Potency did it give?
Its Potency is “inactive”.

Which Potency does the source give for `O=C(c1ccc2nc(-c3ccco3)c(-c3ccco3)nc2c1)N1CCC2(CC1)OCCO2` here?
The Potency was inconclusive: 3.16 µM [inhibitor, partial curve].

With `Cc1ncc(CC(=O)n2cc(C(=O)c3cc(Cl)ccc3O)cn2)s1` as the compound, how does the Potency read?
The Potency was inconclusive: 28.2 µM [inhibitor, single point].

How did the Potency turn out when `CCOC(=O)CSc1ncnc2c1cnn2-c1ccccc1` was run?
Its Potency is inconclusive: 31.6 µM [inhibitor, single point].

How did the Potency turn out when `Cc1ccc(N2C(=O)NC(=O)C3(Cc4ccccc4N4CCCC43)C2=O)cc1` (stereo unspecified) was run?
Its Potency is inconclusive: 35.5 µM [inhibitor, single point].

With `CCOC(=O)C1=C(C)N(C)C2(C)CC1c1ccccc1O2` (stereo unspecified) as the compound, how does the Potency read?
The Potency was “inactive”.

`CC(=O)OC1CC(OC(C)=O)[C@]2(C)C(CC(OC(C)=O)[C@]3(C)C2CC[C@@]2(C)C(c4ccoc4)C[C@H]4O[C@]432)C1(C)C` (stereo partly specified) was tested. Which Potency did it give?
Its Potency is inconclusive: 39.8 µM [inhibitor, single point].

Which Potency does the source give for `O=P(Nc1ccccc1)(Nc1ccccc1)Oc1ccc(Cl)cc1` here?
Its Potency is “inactive”.

With `N=c1ccccn1Cc1ccccc1` as the compound, how does the Potency read?
Its Potency is inconclusive: 39.8 µM [inhibitor, single point].

For `C=CCN1C(=O)NC(=O)/C(=C/C=C/c2ccccc2)C1=O`, which Potency is on record?
Its Potency is active: 14.1 µM.

For `c1ccc(Nc2ccc3ccccc3c2)cc1`, which Potency is on record?
The Potency was inconclusive: 31.6 µM [inhibitor, partial curve].

With `C[As+](C)(c1ccc(Br)c([N+](=O)[O-])c1)c1ccc(Br)c([N+](=O)[O-])c1.O=[N+]([O-])O` as the compound, how does the activity, negative = inhibition read?
Its activity, negative = inhibition is inactive: 32.3% [at 13.5 µM].

`COC(=O)[C@@]1(Cc2ccccc2)[C@H]2c3cc(C(=O)N(C)C)[nH]c3C[C@H]2CN1C(=O)c1ccccc1` was tested. Which Potency did it give?
The Potency was “inactive”.

Which Potency does the source give for `Cc1oc2ccc(OC(=O)N(C)C)cc2c1C(=O)OC(C)C` here?
The Potency was “inactive”.

With `CCCc1cc2c(n1Cc1ccc(C)cc1)C(C)C1CN(C(=O)c3ccccc3)C(C)(C(=O)OC)C21` (stereo unspecified) as the compound, how does the Potency read?
Its Potency is inconclusive: 39.8 µM [inhibitor, single point].

For `COc1ccc(/C=C2/C(=O)NC(=O)N(Cc3ccco3)C2=O)cc1`, which Potency is on record?
The Potency was “inactive”.

For `CN1CCN(c2ccc(N)cc2Cl)CC1`, which Potency is on record?
The Potency was “inactive”.

For `CCCCCOc1ccc(C)cc1CN(CCCl)CCCl`, which Potency is on record?
The Potency was active: 20 µM.

How did the Potency turn out when `CC1(C)C(=O)C=C[C@]2(C)[C@H]3CC[C@@]4(C)[C@H](c5ccoc5)OC(=O)[C@H]5O[C@]54[C@]3(C)[C@H](O)C[C@@H]12` was run?
The Potency was “inactive”.

`COc1ccc(/C=C2/C(=O)NC(=O)N(c3ccc(C)c(C)c3)C2=O)cc1CN1C(=O)c2ccccc2C1=O` was tested. Which Potency did it give?
Its Potency is active: 7.94 µM.

`COc1ccc2c(c1)c(C(=O)O)c(C)n2CC(C)C` was tested. Which Potency did it give?
The Potency was “inactive”.

With `CC(=O)[C@@H]1CC[C@H]2[C@@H]3CC[C@@H]4CC(=O)CC[C@]4(C)[C@H]3CC[C@]12C` as the compound, how does the Potency read?
The Potency was inconclusive: 25.1 µM [inhibitor, single point].

How did the Potency turn out when `CC12CCC3C(CC=C4CC5(CCC43C)OCCO5)C1CCC2=O` (stereo unspecified) was run?
The Potency was “inactive”.

For `COc1cccc(C2(C#N)CCN(C)CC2)c1`, which Potency is on record?
Its Potency is “inactive”.
